The campaign covered roughly 45,000 compounds. About 200 (0.44%) were called active. Not shown: some 7% with an inconclusive outcome. Calls follow the shape of the dose curve; as a rule, active = well fitted activation curve with a large enough effect; inconclusive = small, poorly fitted or top-dose-only effect; inactive = no such curve, though single readings can be large or run the other way. The list shows a part of the results.
assay: qHTS of TDP-43 Inhibitors: NCGC Sytravon Library Screen; details: yeast TDP-43 toxicity rescue, BacTiter-Glo growth, 24 h; series mostly up to 46.1 µM; growth rescue (activation): at the top concentration; also: 0% is about no effect; nearly all actives have a fitted effect of over 55% in size
In short: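 TDP-43-expressing yeast, pregrown in raffinose, seeded at OD600 0.02 in galactose medium with compound for 24 hr at 30 deg C. Growth read by BacTiter-Glo luminescence, so rescue of toxicity appears as activation.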

| SMILES | growth rescue (activation) |
| --- | --- |
| Cc1nn(CC(=O)Nc2cccc(S(N)(=O)=O)c2)c(C)c1[N+](=O)[O-] | inactive: 9.94% |
| COc1ccc(C(=O)NC2CCN(C(=S)Nc3ccc(C)cc3)CC2)cc1 | inactive: 8.32% |
| CCCCNC(=O)c1nn2c(C(F)(F)F)cc(-c3ccc(OC)cc3)nc2c1Br | inactive: 0.456% |
| CCOc1cc(/C=N/NC(=O)CCc2n[nH]c(=O)[nH]c2=O)ccc1O | inactive: -4.9% |
| CC1(C(=O)NS(=O)(=O)c2ccccc2Cl)CCN1C(=O)CC1CCCC1 (configuration not stated) | inactive: 12.6% |
| CCC(=O)N1CCN(c2ccc(NC(=O)COc3cccc(C)c3C)cc2)CC1 | inactive: 18.5% |
| CC(=O)Nc1ccc(N2C(=O)CSC2c2cccc(Br)c2)cc1 (configuration not stated) | inactive: -3.77% |
| CCOc1ccc(OCC(=O)Nc2ccc(S(=O)(=O)Nc3cc(C)nc(C)n3)cc2)cc1 | inactive: 16% |
| CN(C)S(=O)(=O)c1cccc(COC(=O)c2ccc3c(c2)OCO3)c1 | inactive: 12.1% |
| Cc1ccc(S(=O)(=O)NCc2ccc(/C=C(/C#N)C(=O)NCc3ccccc3)o2)cc1 | inactive: 17.3% |
| CC1Cc2cc(/C(O)=C3/C(=O)C(=O)N(CCN4CCOCC4)C3c3ccc(C(C)C)cc3)ccc2O1 (configuration not stated) | inactive: 9.74% |
| CCOCCCNC(=O)C(Cc1ccccc1)NS(=O)(=O)c1ccc2c(c1)c(=O)n(C)c(=O)n2C (configuration not stated) | inactive: -0.799% |
| N#CC1=C(N)OC2=C(C(=O)CC(c3ccccc3)C2)C1c1ccoc1 (configuration not stated) | inactive: -0.494% |
| COCCNc1nc(Oc2ccc(CC(=O)OC)cc2)c2sc(-c3ccccc3)cc2n1 | inactive: 19.5% |
| O=C(Nc1ccc2c(c1)OCO2)c1ccccc1 | inactive: -9.53% |
| COc1ccc(NC(=O)Nc2ccccc2F)cc1Cl | inactive: 1.14% |
| CCOC(=O)C1(Cc2ccccc2C)CCCN(C(=O)c2ccccn2)C1 (configuration not stated) | inactive: 25.7% |
| CCN(Cc1ccncc1)C(=O)c1ccccc1NS(=O)(=O)c1ccc(F)cc1 | inactive: -14% |
| O=C(CSc1nnc(-c2ccc(F)cc2)o1)N1CCCCC1 | inactive: 15.3% |
| CCCC(C)NC(=O)COc1ccc(S(=O)(=O)c2ccc(OCC(=O)NC(C)CCC)cc2)cc1 (configuration not stated) | inactive: -7.28% |
| CN(C)C(CNC(=O)c1ccc(C2SCCS2)cc1)c1ccccc1 (configuration not stated) | inactive: 6.33% |
| CC(C)n1nnnc1SCC(=O)NC1CCCC1 | inactive: -10.3% |
| CC(NC(=S)Nc1ccc(S(N)(=O)=O)cc1)c1ccc2c(c1)OCO2 (configuration not stated) | inactive: 4.18% |
| COc1ccccc1C(=O)Oc1ccc2ccc(=O)oc2c1 | inactive: -17.1% |
| O=C(CN1C(=O)NC2(CCOc3ccccc32)C1=O)NCC(F)(F)F (configuration not stated) | inactive: -9.77% |
| CC(=O)Nc1ccc2nc(-c3cccn3C)[nH]c2c1 | inactive: 1.58% |

| SMILES | growth rescue (activation) |
| --- | --- |
| CCOc1ccc(N(CC(=O)NCc2ccco2)C(=O)CCC(=O)Nc2ccccn2)cc1 | inactive: 4.26% |
| NC(CCc1ccccc1)c1csc(Nc2ccccn2)n1 (configuration not stated) | inactive: 11% |
| Cc1ccc(C)c(Cn2nnc3c(=O)[nH]c(C4CCN(S(=O)(=O)c5ccc(S(=O)(=O)N(C)C)cc5)CC4)nc32)c1 | inactive: -4.06% |
| CC(=O)N(c1nc(CCl)cs1)c1c(C)cc(C)cc1C | inactive: 4.53% |
| O=C(NCCCl)Nc1cccc(Br)c1 | inactive: 0.598% |
| COc1ccc(NC(=O)CNC(=O)c2nn(-c3ccc(OC)c(OC)c3)c(=O)c3ccccc23)c(OC)c1 | inactive: 2.99% |
| C=CCn1c(SCC(=O)N(C)CC(=O)Nc2ccc(C)cc2)nnc1-c1ccncc1 | inactive: 9.89% |
| CCC(CC)c1nnc(NC(=O)c2ccc3c(c2)OCO3)s1 | inactive: 13.6% |
| CC1CN(C(=O)CCS(=O)(=O)c2ccccc2)CC(C)O1 (configuration not stated) | inactive: -0.176% |
| Cc1ccc(N(CCC(=O)O)S(=O)(=O)c2ccc(C)cc2)cc1 | inactive: 3.06% |
| Cc1sc2ncn(CC(=O)NCCCN3CC(C)CC(C)C3)c(=O)c2c1S(=O)(=O)N1CC(C)CC(C)C1 (configuration not stated) | inactive: -2.52% |
| Cc1cccc(S(=O)(=O)Nc2nc3ccccc3nc2NCc2ccc3c(c2)OCO3)c1 | inactive: 10.2% |
| COc1ccc(CN2CCCN(S(=O)(=O)c3ccc(Br)cc3)CC2)cc1 | inactive: -15.9% |
| C[C@H](NC(=O)Nc1cccc(Br)c1)C(=O)O | inactive: 18.5% |
| COc1ccccc1C(=O)OCCN=C1NS(=O)(=O)c2ccccc21 | inactive: -2.65% |
| CSc1ccc(C(=O)C2CCCN(C(=O)CN3CCOC3=O)C2)cc1 (configuration not stated) | inactive: 10.8% |
| CCOP(=O)(NC(c1ccccc1)c1nc2ccccc2[nH]c1=O)OCC (configuration not stated) | inactive: 3.35% |
| COc1cc(C(=O)Nc2nc3ccc(S(C)(=O)=O)cc3s2)cc(OC)c1C | inactive: 4.86% |
| CC(OC(=O)c1cc(S(=O)(=O)Nc2ccc(F)cc2)ccc1Cl)C(=O)Nc1ccc2c(c1)OCCO2 (configuration not stated) | inactive: 8.97% |
| Cc1ccc(C)c(CN2C(=O)c3ccccc3S(=O)(=O)c3ccc(C(=O)N4CCN(c5ccccc5)CC4)cc32)c1 | inactive: 11.2% |
| COc1ccc(N2CCN(C(=O)c3cc(-c4cc(OC)ccc4OC)nc4ccccc34)CC2)cc1 | inactive: 27.1% |
| CC(C)C(OC(=O)C1=Cc2ccccc2OC1)C(=O)NCC1CCCO1 (configuration not stated) | inactive: 0.664% |
| Cc1ccc(/C=C/C(=O)CCC(=O)O)cc1 | inactive: 20.8% |
| COc1ccc(OC)c(/C=C/C(=O)OCC(=O)N2CCCCC2)c1 | inactive: 0.761% |
| Cc1ccc(S(=O)(=O)n2[nH]c(=O)c(CCO)c2C)cc1 | inactive: -9.28% |
| CC(C)Oc1ccc(F)cc1-c1cc(C(=O)NCc2ccc(F)cc2)[nH]n1 | inactive: 14.1% |

— PubChem BioAssay AID1347073 (National Center for Advancing Translational Sciences (NCATS), 2019)
